# The other results are listed elsewhere or left out.
# Tested on: HepG2
# Assay: cytotoxicity call (relative viability < 0.9)
# Details: 10 µM
row,Compound,cytotoxicity call
1,CC1(C)Cc2c(-c3ccccc3)c(-c3ccc(Cl)cc3)c(CC(=O)O)n2C1,inactive
2,C[C@H]1CN([C@@H](C)CO)C(=O)c2cccc(NC(=O)c3ccc(-c4nccs4)cc3)c2O[C@@H]1CN(C)Cc1ccc(C(F)(F)F)cc1,active
3,CN1CCC[C@]2(CCN(C(=O)CCn3ccc(=O)[nH]c3=O)C2)C1=O,inactive
4,C=CC[C@H](CC(=O)N(CCO)Cc1ccccc1)C(=O)N[C@H](COC(=O)[C@H](CC=C)NC(=O)OCC1c2ccccc2-c2ccccc21)C(C)(C)C,inactive
5,C[C@@H]1CCCCO[C@H](CN(C)S(=O)(=O)c2ccc(Cl)cc2)[C@@H](C)CN([C@H](C)CO)C(=O)c2cc(NS(=O)(=O)c3cccs3)ccc2O1,inactive
6,OCc1cc(O)c2c(O)c3c(O)cccc3c(O[C@@H]3O[C@H](CO)[C@@H](O)[C@H](O)[C@H]3O)c2c1,active
7,C[C@@H]1CN([C@@H](C)CO)C(=O)c2cc(NC(=O)Nc3ccccc3)ccc2O[C@@H](C)CCCCO[C@@H]1CN(C)CC1CCCCC1,active
8,C[C@H]1CN([C@@H](C)CO)S(=O)(=O)c2ccc(C#Cc3ccccc3)cc2O[C@@H]1CN(C)S(C)(=O)=O,inactive
9,C[C@@H]1CCCCO[C@H](CN(C)Cc2ccccc2)[C@H](C)CN([C@H](C)CO)C(=O)c2cc(NC(=O)Nc3ccc(C(F)(F)F)cc3)ccc2O1,active

# Tested on: S. aureus RN4220
# Assay: growth inhibition call (relative growth <= 0.2)
# Details: 50 µM
row,Compound,growth inhibition call
1,CO[C@H]1CN(C)C(=O)c2ccc(NC(=O)NC(C)C)cc2OC[C@@H](C)N(Cc2ccc(-c3ccccn3)cc2)C[C@H]1C,inactive
2,C[C@H]1CN([C@@H](C)CO)C(=O)c2cccc(NS(=O)(=O)c3cccs3)c2O[C@@H]1CN(C)Cc1ccc(Oc2ccccc2)cc1,inactive
3,COc1ccc(S(=O)(=O)N(C)C[C@H]2Oc3ccc(NC(=O)CCN4CCOCC4)cc3CC(=O)N([C@H](C)CO)C[C@H]2C)cc1,inactive
4,C[C@@H]1CN([C@@H](C)CO)C(=O)c2cc(NC(=O)C3CCCCC3)ccc2O[C@@H](C)CCCCO[C@@H]1CN(C)C(=O)NC1CCCCC1,inactive
5,CC(=O)c1cncnc1,inactive
6,Cc1noc(C)c1S(=O)(=O)Nc1ccc2c(c1)C(=O)N([C@H](C)CO)C[C@H](C)[C@@H](CN(C)CC1CC1)O2,inactive
7,Cn1cnc(S(=O)(=O)N2C[C@@H](O)COC[C@H]3O[C@H](CC(=O)NC4CCC4)CC[C@@H]32)c1,inactive
8,C[C@H](CO)N1C[C@H](C)[C@@H](CN(C)Cc2ccc3c(c2)OCO3)OCCCC[C@H](C)Oc2ccc(NC(=O)c3ccccc3)cc2C1=O,inactive
9,Cc1noc(C)c1NC(=O)Nc1ccc2c(c1)CC(=O)N([C@@H](C)CO)C[C@@H](C)[C@@H](CN(C)Cc1ccc(C(=O)Nc3ccccc3N)cc1)O2,inactive
10,C[C@H](CO)N1C[C@H](C)[C@@H](CN(C)Cc2ccc(Cl)c(Cl)c2)Oc2ccc(NC(=O)Nc3ccc(C(F)(F)F)cc3)cc2CC1=O,inactive
11,C[C@@H]1CN([C@H](C)CO)S(=O)(=O)c2ccc(C#Cc3cccnc3)cc2O[C@H]1CN(C)C(=O)CN(C)C,inactive
12,COc1ccccc1C#Cc1ccc2c(c1)O[C@@H](CN(C)C(C)=O)[C@@H](C)CN([C@H](C)CO)S2(=O)=O,inactive
13,COc1ccc(NC(=O)Nc2ccc3c(c2)C(=O)N([C@H](C)CO)C[C@@H](C)[C@@H](CN(C)C(=O)Nc2cccc4ccccc24)O3)cc1,inactive
14,C[C@@H]1CCCCO[C@@H](CN(C)C(=O)Cc2ccccc2)[C@@H](C)CN([C@@H](C)CO)C(=O)c2cc(NC(=O)Nc3ccc4c(c3)OCO4)ccc2O1,inactive
15,CCCCC/C=C/C=C1/C(=O)C=C[C@@H]1C/C=C\CCCC(=O)O,inactive
16,C[C@@H]1CN([C@H](C)CO)C(=O)c2cc(NS(=O)(=O)c3cccs3)ccc2O[C@@H](C)CCCCO[C@@H]1CN(C)Cc1ccc(C(F)(F)F)cc1,inactive
17,C[C@@H]1CN([C@H](C)CO)C(=O)Cc2cc(NC(=O)Nc3ccc(F)cc3)ccc2O[C@H]1CN(C)S(C)(=O)=O,inactive
18,Cc1ccc(S(=O)(=O)Nc2ccc3c(c2)C(=O)N([C@H](C)CO)C[C@H](C)[C@@H](CN(C)Cc2ccncc2)OCCCC[C@H](C)O3)cc1,inactive
19,COc1ccc(S(=O)(=O)N(C)C[C@@H]2Oc3ccc(NC(=O)Nc4c(C)noc4C)cc3CC(=O)N([C@H](C)CO)C[C@@H]2C)cc1,inactive
20,C[C@@H]1CCCCO[C@H](CN(C)S(=O)(=O)c2cn(C)cn2)[C@H](C)CN([C@@H](C)CO)C(=O)c2cc(NS(C)(=O)=O)ccc2O1,inactive

row,Compound,growth inhibition call
1,C[C@@H]1CN([C@H](C)CO)C(=O)c2cccc(NS(=O)(=O)c3cn(C)cn3)c2O[C@H]1CN(C)Cc1ccccc1,inactive
2,C[C@H]1CN([C@@H](C)CO)C(=O)c2cc(C#Cc3cccc(F)c3)cnc2O[C@H]1CN(C)Cc1ccccn1,inactive
3,CC(C)NC(=O)N(C)C[C@@H]1Oc2ccc(NS(=O)(=O)c3cn(C)cn3)cc2CC(=O)N([C@@H](C)CO)C[C@H]1C,inactive
4,COc1ccc(NC(=O)Nc2ccc3c(c2)CC(=O)N([C@H](C)CO)C[C@H](C)[C@H](CN(C)C(=O)Nc2ccc(C(F)(F)F)cc2)O3)cc1,inactive
5,NC(=O)NCc1ccccn1,inactive
6,CCS(=O)(=O)N1C[C@]2(CN(C2)C(=O)Nc2c(noc2C)C)c2c(n(c3cc(ccc23)OC)C)[C@H]1CO,inactive
7,C[C@H]1CN([C@@H](C)CO)C(=O)Cc2cc(NS(=O)(=O)c3ccc(Cl)cc3)ccc2O[C@@H]1CN(C)S(C)(=O)=O,inactive
8,Cc1ccc(S(=O)(=O)N2C[C@@H](O)COC[C@@H]3O[C@@H](CC(=O)NCCCN(C)C)CC[C@H]32)cc1,inactive
9,COc1ccc(CNc2nc(N3CCCC3CO)ncc2C(=O)NCc2ncccn2)cc1Cl (centres undefined),inactive
10,COCC#Cc1ccc2c(c1)O[C@@H](CN(C)S(=O)(=O)c1ccc(C)cc1)[C@@H](C)CN([C@H](C)CO)S2(=O)=O,inactive
11,N#Cc1cccc2ccsc12,inactive
12,CC1(C)Cc2c(-c3ccccc3)c(-c3ccc(Cl)cc3)c(CC(=O)O)n2C1,active
13,C[C@H]1CN([C@@H](C)CO)C(=O)c2cccc(NC(=O)c3ccc(-c4nccs4)cc3)c2O[C@@H]1CN(C)Cc1ccc(C(F)(F)F)cc1,inactive
14,CN1CCC[C@]2(CCN(C(=O)CCn3ccc(=O)[nH]c3=O)C2)C1=O,inactive
15,C=CC[C@H](CC(=O)N(CCO)Cc1ccccc1)C(=O)N[C@H](COC(=O)[C@H](CC=C)NC(=O)OCC1c2ccccc2-c2ccccc21)C(C)(C)C,inactive
16,C[C@@H]1CCCCO[C@H](CN(C)S(=O)(=O)c2ccc(Cl)cc2)[C@@H](C)CN([C@H](C)CO)C(=O)c2cc(NS(=O)(=O)c3cccs3)ccc2O1,inactive
17,OCc1cc(O)c2c(O)c3c(O)cccc3c(O[C@@H]3O[C@H](CO)[C@@H](O)[C@H](O)[C@H]3O)c2c1,inactive
18,C[C@@H]1CN([C@@H](C)CO)C(=O)c2cc(NC(=O)Nc3ccccc3)ccc2O[C@@H](C)CCCCO[C@@H]1CN(C)CC1CCCCC1,inactive
19,C[C@H]1CN([C@@H](C)CO)S(=O)(=O)c2ccc(C#Cc3ccccc3)cc2O[C@@H]1CN(C)S(C)(=O)=O,inactive
20,C[C@@H]1CCCCO[C@H](CN(C)Cc2ccccc2)[C@H](C)CN([C@H](C)CO)C(=O)c2cc(NC(=O)Nc3ccc(C(F)(F)F)cc3)ccc2O1,inactive

# — the antibiotic and cytotoxicity screens of Wong et al. (2023)
